Measurements from publication PMC3617184.
No constants are given. Whether binding was seen depends on the method and setting. In cells and extracts the contact can be indirect. Some results given as binding are weak or reduced against the parent protein; the word gives no strength. For part of these data: Where a sequence is shown, tags or fusion partners need not be part of it.

Experiments:
[1] = biological target: T1, myc-tagged Whi5 (S. cerevisiae) (UniProt Q12416); assay: co-IP; lysate of an asynchronous Whi5-myc culture; IP with anti-myc antibody; blots with anti-myc, anti-Swi6, anti-Swi4, anti-Mbp1
T1 sequence: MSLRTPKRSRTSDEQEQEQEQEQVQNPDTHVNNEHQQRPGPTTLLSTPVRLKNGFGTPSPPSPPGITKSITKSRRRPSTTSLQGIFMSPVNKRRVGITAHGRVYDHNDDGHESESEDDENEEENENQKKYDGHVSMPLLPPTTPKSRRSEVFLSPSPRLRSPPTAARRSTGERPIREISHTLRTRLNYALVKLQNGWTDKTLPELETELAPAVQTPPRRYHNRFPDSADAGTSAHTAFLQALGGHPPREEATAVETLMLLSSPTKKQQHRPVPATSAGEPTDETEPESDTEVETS

Mbp1 (S. cerevisiae) = biological target: T2, Mbp1 (S. cerevisiae) (UniProt P39678); assay: co-IP; lysate of an asynchronous Nrm1-myc culture; IP with anti-Mbp1, anti-Swi4 or anti-Swi6 polyclonal sera, protein A Sepharose, 2 hours at 4°C; lysis buffer 50 mM Tris-HCl pH 7.5, 1% Triton X-100, 250 mM NaCl; blots with anti-myc, anti-Mbp1, anti-Swi6, anti-Swi4
T2 sequence: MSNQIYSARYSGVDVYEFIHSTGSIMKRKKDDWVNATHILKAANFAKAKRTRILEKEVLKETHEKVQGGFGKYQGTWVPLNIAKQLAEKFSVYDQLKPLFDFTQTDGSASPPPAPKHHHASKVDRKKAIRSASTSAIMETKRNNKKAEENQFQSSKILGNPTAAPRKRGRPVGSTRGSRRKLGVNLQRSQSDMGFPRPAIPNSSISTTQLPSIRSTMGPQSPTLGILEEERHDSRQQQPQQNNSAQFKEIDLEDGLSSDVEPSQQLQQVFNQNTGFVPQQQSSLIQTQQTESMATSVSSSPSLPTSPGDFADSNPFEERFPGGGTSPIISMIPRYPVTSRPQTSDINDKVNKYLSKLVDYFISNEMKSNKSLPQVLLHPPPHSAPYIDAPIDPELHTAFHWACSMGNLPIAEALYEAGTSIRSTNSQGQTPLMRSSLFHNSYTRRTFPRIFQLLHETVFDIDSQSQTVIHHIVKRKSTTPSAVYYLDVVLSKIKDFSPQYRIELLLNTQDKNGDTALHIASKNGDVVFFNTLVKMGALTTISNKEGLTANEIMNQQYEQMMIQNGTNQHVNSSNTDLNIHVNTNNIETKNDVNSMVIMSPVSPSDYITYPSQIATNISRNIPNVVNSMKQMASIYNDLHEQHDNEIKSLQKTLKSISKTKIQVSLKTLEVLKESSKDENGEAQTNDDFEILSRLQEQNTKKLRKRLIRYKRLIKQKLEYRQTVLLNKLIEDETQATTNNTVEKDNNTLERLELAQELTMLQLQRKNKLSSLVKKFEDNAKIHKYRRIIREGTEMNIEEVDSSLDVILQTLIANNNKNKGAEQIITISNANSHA

Swi4 (S. cerevisiae) = biological target: T3, Swi4 (S. cerevisiae) (UniProt P25302); assay: as above
T3 sequence: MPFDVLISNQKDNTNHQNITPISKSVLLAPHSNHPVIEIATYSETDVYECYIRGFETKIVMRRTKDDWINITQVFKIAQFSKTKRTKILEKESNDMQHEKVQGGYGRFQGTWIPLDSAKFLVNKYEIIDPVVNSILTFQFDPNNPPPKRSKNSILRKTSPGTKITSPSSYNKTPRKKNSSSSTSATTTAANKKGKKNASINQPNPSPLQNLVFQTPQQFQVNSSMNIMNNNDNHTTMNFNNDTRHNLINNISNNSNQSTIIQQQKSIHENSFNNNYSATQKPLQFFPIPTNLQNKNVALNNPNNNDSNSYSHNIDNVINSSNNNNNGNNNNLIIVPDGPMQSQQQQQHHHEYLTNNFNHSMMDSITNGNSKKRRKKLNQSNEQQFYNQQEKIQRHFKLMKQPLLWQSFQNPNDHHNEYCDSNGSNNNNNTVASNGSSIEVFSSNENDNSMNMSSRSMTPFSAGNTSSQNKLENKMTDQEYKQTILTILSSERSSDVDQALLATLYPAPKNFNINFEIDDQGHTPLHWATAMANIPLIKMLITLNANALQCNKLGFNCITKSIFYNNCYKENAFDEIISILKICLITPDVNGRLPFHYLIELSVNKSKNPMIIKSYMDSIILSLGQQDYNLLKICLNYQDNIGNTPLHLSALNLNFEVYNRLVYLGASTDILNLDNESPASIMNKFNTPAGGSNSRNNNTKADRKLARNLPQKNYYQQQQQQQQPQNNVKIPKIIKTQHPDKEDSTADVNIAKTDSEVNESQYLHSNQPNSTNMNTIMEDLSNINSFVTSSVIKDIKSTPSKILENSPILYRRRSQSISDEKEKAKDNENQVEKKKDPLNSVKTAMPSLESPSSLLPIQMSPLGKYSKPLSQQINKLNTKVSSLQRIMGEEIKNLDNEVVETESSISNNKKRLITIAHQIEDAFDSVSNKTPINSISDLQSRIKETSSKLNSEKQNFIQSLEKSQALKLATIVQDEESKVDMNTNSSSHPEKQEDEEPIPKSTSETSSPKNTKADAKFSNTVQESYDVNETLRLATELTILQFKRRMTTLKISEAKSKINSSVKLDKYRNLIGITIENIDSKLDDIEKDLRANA

binding [1]: binds
binding (Mbp1 (S. cerevisiae)): binds
binding (Swi4 (S. cerevisiae)): binds
B1: Swi6 (protein, UniProt P09959 1-803)
chain: MALEEVVRYLGPHNEIPLTLTRDSETGHFLLKHFLPILQQYHDTGNINETNPDSFPTDEERNKLLAHYGIAVNTDDRGELWIELEKCLQLLNMLNLFGLFQDAFEFEEPETDQDEEDPSHSKLPENKTKSENSKDNISSKRINNLQDMSLDSDAHRELGSPLKKLKIDTSVIDAESDSTPNTARGKPNDDINKGPSGDNENNGTDDNDRTAGPIITFTHDLTSDFLSSPLKIMKALPSPVVNDNEQKMKLEAFLQRLLFPEIQEMPTSLNNDSSNRNSEGGSSNQQQQHVSFDSLLQEVNDAFPNTQLNLNIPVDEHGNTPLHWLTSIANLELVKHLVKHGSNRLYGDNMGESCLVKAVKSVNNYDSGTFEALLDYLYPCLILEDSMNRTILHHIIITSGMTGCSAAAKYYLDILMGWIVKKQNRPIQSGTNEKESKPNDKNGERKDSILENLDLKWIIANMLNAQDSNGDTCLNIAARLGNISIVDALLDYGADPFIANKSGLRPVDFGAGTSKLQNTNGGDENSKMVSKGDYDGQKNGKAKKIRSQLLKNPPETTSLINDVQNLLNSISKDYENETVQYNEKLEKLHKELNEQREELANSREQLANVKQLKDEYSLMQEQLTNLKAGIEEEEESFREESKKLGIIADESSGIDWDSSEYDADEPFKVEFLSDFLEDKLQKNYEGDISKLLEAESKEQIMEQIRNQLPAEKIQSMLPPTVLLKARINAYKRNDKHLTNVLDTISTKQSELENKFRRVLSLCLKIDENKVDNMLDGLLQAISSEDPQDIDTDEMQDFLKKHAS
